Results published in patent US11413324B2, “Compositions and methods for treating peripheral nerve disease, disorders, and injuries” (University of Virginia Patent Foundation, priority 2017, dated 2022).

What was measured:
peripheral olig2^+ OPCs = test: Quantification of peripheral olig2+ OPCs at 3 dpf in drug-treated olig2:dsred larvae; type: in vivo, zebrafish; conditions: counted at 3 dpf
[1] = tested on: dorsal spinal cord olig2^+ OPCs; test: Quantification of dorsal spinal cord olig2+ OPCs in a 4-somite region; conditions: treatment alone, 24 to 72 hpf, vs DMSO, p=0.23

Structure (SMILES)	number of peripheral OPCs when co-administered with SCH-58261 (peripheral olig2^+ OPCs; 2.5 μM with 10 μM SCH-58261, from 24 hpf, p<0.05 vs SCH-58261 alone)	dorsal spinal cord olig2+ OPCs in a 4-somite region [1]	number of peripheral OPCs when co-administered with SCH-58261 (peripheral olig2^+ OPCs; 5 μM with 10 μM SCH-58261, from 24 hpf, p<0.01 vs SCH-58261 alone)
CCNC(=O)[C@H]1O[C@@H](n2cnc3c(N)nc(NCCc4ccc(CCC(=O)O)cc4)nc32)[C@H](O)[C@@H]1O [CGS-21680]	significantly decreased	did not observe any differences	–
Nc1ncnc2c1ncn2[C@@H]1O[C@H](CO)[C@@H](O)[C@H]1O [adenosine]	–	did not observe any differences	significantly decreased
